# This is one part of the list.
# B1: Gal 8 (Homo sapiens), O00214 (protein)
# chain: MMLSLNNLQNIIYNPVIPFVGTIPDQLDPGTLIVIRGHVPSDADRFQVDLQNGSSMKPRADVAFHFNPRFKRAGCIVCNTLINEKWGREEITYDTPFKREKSFEIVIMVKDKFQVAVNGKHTLLYGHRIGPEKIDTLGIYGKVNIHSIGFSFSSDLQSTQASSLELTEISRENVPKSGTPQLPSNRGGDISKIAPRTVYTKSKDSTVNHTLTCTKIPPMNYVSKRLPFAARLNTPMGPGRTVVVKGEVNANAKSFNVDLLAGKSKDIALHLNPRLNIKAFVRNSFLQESWGEEERNITSFPFSPGMYFEMIIYCDVREFKVAVNGVHSLEYKHRFKELSSIDTLEINGDIHLLEVRSW
# Legend:
# Assay in all cases: glycan array binding signal (z-score within array); higher = stronger binding
# Conditions in all cases: glycan notation: IUPAC condensed, linker removed
# Gal(b1-2)Gal = biological target: Gal(b1-2)Gal
# In short: (§1)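 Glycan array data came from 3228 arrays in the Consortium for Functional Glycomics database, and only arrays with an available protein sequence were kept. Glycan names were put into IUPAC-condensed notation, and columns mapping to the same glycan were averaged. The binding signal is a within-array Z-score, averaged across arrays of one protein sequence run at different concentrations or buffers and across linkers. A negative Z-score can be read as non-binding.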
# Gal(b1-3)Gal = biological target: Gal(b1-3)Gal
# In short: as §1
# Gal(b1-3)Gal(b1-4)GlcNAc = biological target: Gal(b1-3)Gal(b1-4)GlcNAc
# In short: as §1
# Gal(b1-3)GalNAc = biological target: Gal(b1-3)GalNAc
# In short: as §1
# [1] = biological target: Gal(b1-3)GalNAc(b1-3)Gal(a1-4)Gal(b1-4)Glc
# In short: as §1
# [2] = biological target: Gal(b1-3)GalNAc(b1-4)Gal(b1-4)Glc
# In short: as §1
# [3] = biological target: Gal(b1-3)GalNAc(b1-4)[Neu5Ac(a2-3)]Gal(b1-4)Glc
# In short: as §1
# Gal(b1-3)GlcNAc = biological target: Gal(b1-3)GlcNAc
# In short: as §1
# [4] = biological target: Gal(b1-3)GlcNAc(b1-2)Man(a1-3)[Gal(b1-3)GlcNAc(b1-2)Man(a1-6)]Man(b1-4)GlcNAc(b1-4)GlcNAc
# In short: as §1
# [5] = biological target: Gal(b1-3)GlcNAc(b1-3)Gal(b1-3)GlcNAc
# In short: as §1
# [6] = biological target: Gal(b1-3)GlcNAc(b1-3)Gal(b1-4)Glc
# In short: as §1
# [7] = biological target: Gal(b1-3)GlcNAc(b1-3)Gal(b1-4)GlcNAc
# In short: as §1
# [8] = biological target: Gal(b1-3)[Fuc(a1-4)]GlcNAc
# In short: as §1
# [9] = biological target: Gal(b1-3)[Fuc(a1-4)]GlcNAc(b1-3)Gal(b1-3)[Fuc(a1-4)]GlcNAc
# In short: as §1
# [10] = biological target: Gal(b1-3)[Fuc(a1-4)]GlcNAc(b1-3)Gal(b1-4)GlcNAc
# In short: as §1
# [11] = biological target: Gal(b1-3)[Fuc(a1-4)]GlcNAc(b1-3)Gal(b1-4)[Fuc(a1-3)]GlcNAc
# In short: as §1
# [12] = biological target: Gal(b1-3)[GlcNAc(b1-6)]GalNAc
# In short: as §1
# [13] = biological target: Gal(b1-3)[Neu5Ac(a2-6)]GalNAc
# In short: as §1
# [14] = biological target: Gal(b1-3)[Neu5Ac(a2-6)]GlcNAc(b1-6)Gal(b1-4)Glc
# In short: as §1
# [15] = biological target: Gal(b1-3)[Neu5Ac(b2-6)]GalNAc
# In short: as §1
# [16] = biological target: Gal(b1-4)GalNAc(a1-3)[Fuc(a1-2)]Gal(b1-4)GlcNAc
# In short: as §1
# [17] = biological target: Gal(b1-4)GalNAc(b1-3)[Fuc(a1-2)]Gal(b1-4)GlcNAc
# In short: as §1
# Gal(b1-4)Glc = biological target: Gal(b1-4)Glc
# In short: as §1
# Gal(b1-4)Glc6S = biological target: Gal(b1-4)Glc6S
# In short: as §1
# Gal(b1-4)GlcNAc = biological target: Gal(b1-4)GlcNAc
# In short: as §1
# [18] = biological target: Gal(b1-4)GlcNAc(a1-6)Gal(b1-4)GlcNAc
# In short: as §1
# [19] = biological target: Gal(b1-4)GlcNAc(b1-2)Man(a1-3)[Gal(b1-4)GlcNAc(b1-2)Man(a1-6)]Man(b1-4)GlcNAc(b1-4)GlcNAc
# In short: as §1
# [20] = biological target: Gal(b1-4)GlcNAc(b1-3)Gal(b1-3)GlcNAc
# In short: as §1
# [21] = biological target: Gal(b1-4)GlcNAc(b1-3)Gal(b1-4)Glc
# In short: as §1
# [22] = biological target: Gal(b1-4)GlcNAc(b1-3)Gal(b1-4)GlcNAc
# In short: as §1
# [23] = biological target: Gal(b1-4)GlcNAc(b1-3)Gal(b1-4)GlcNAc(b1-3)Gal(b1-4)GlcNAc
# In short: as §1
# [24] = biological target: Gal(b1-4)GlcNAc(b1-3)Gal(b1-4)[Fuc(a1-3)]GlcNAc(b1-3)Gal(b1-4)[Fuc(a1-3)]GlcNAc
# In short: as §1
# [25] = biological target: Gal(b1-4)GlcNAc(b1-3)GalNAc
# In short: as §1
# [26] = biological target: Gal(b1-4)GlcNAc(b1-3)[Gal(b1-4)GlcNAc(b1-6)]Gal(b1-4)GlcNAc
# In short: as §1
# [27] = biological target: Gal(b1-4)GlcNAc(b1-3)[GlcNAc(b1-6)]Gal(b1-4)GlcNAc
# In short: as §1
# [28] = biological target: Gal(b1-4)GlcNAc(b1-6)Gal(b1-4)GlcNAc
# In short: as §1
# [29] = biological target: Gal(b1-4)GlcNAc(b1-6)Gal(b1-4)GlcNAc(b1-6)GalNAc
# In short: as §1
# [30] = biological target: Gal(b1-4)GlcNAc(b1-6)GalNAc
# In short: as §1
# [31] = biological target: Gal(b1-4)GlcNAc(b1-6)[Gal(b1-3)]GalNAc
# In short: as §1
# Gal3S(b1-3)GalNAc = biological target: Gal3S(b1-3)GalNAc
# In short: as §1
# Gal3S(b1-3)GlcNAc = biological target: Gal3S(b1-3)GlcNAc
# In short: as §1
# [32] = biological target: Gal3S(b1-3)[Fuc(a1-4)]GlcNAc
# In short: as §1
# Gal3S(b1-4)Glc = biological target: Gal3S(b1-4)Glc
# In short: as §1
# Gal3S(b1-4)Glc6S = biological target: Gal3S(b1-4)Glc6S
# In short: as §1
# Gal3S(b1-4)GlcNAc = biological target: Gal3S(b1-4)GlcNAc
# In short: as §1
# Gal3S(b1-4)GlcNAc6S = biological target: Gal3S(b1-4)GlcNAc6S
# In short: as §1
# [33] = biological target: Gal3S(b1-4)[Fuc(a1-3)]Glc
# In short: as §1
# Gal3S4S(b1-4)GlcNAc = biological target: Gal3S4S(b1-4)GlcNAc
# In short: as §1
# Gal3S6S(b1-4)GlcNAc = biological target: Gal3S6S(b1-4)GlcNAc
# In short: as §1
# Gal3S6S(b1-4)GlcNAc6S = biological target: Gal3S6S(b1-4)GlcNAc6S
# In short: as §1
# Gal4S(b1-4)GlcNAc = biological target: Gal4S(b1-4)GlcNAc
# In short: as §1
# Gal4S6S(b1-4)GlcNAc = biological target: Gal4S6S(b1-4)GlcNAc
# In short: as §1
# Gal6S(b1-4)Glc = biological target: Gal6S(b1-4)Glc
# In short: as §1
# Gal6S(b1-4)Glc6S = biological target: Gal6S(b1-4)Glc6S
# In short: as §1
# Gal6S(b1-4)GlcNAc = biological target: Gal6S(b1-4)GlcNAc
# In short: as §1
# Gal6S(b1-4)GlcNAc6S = biological target: Gal6S(b1-4)GlcNAc6S
# In short: as §1
# GalNAc(a1-3)Gal = biological target: GalNAc(a1-3)Gal
# In short: as §1
# GalNAc(a1-3)GalNAc = biological target: GalNAc(a1-3)GalNAc
# In short: as §1
# GalNAc(b1-3)Gal = biological target: GalNAc(b1-3)Gal
# In short: as §1
# [34] = biological target: GalNAc(b1-3)Gal(a1-4)Gal(b1-4)GlcNAc
# In short: as §1
binder,measurement,setting,value
B1,glycan array binding signal (z-score),Gal(b1-2)Gal,-0.401
same,glycan array binding signal (z-score),Gal(b1-3)Gal,0.328
same,glycan array binding signal (z-score),Gal(b1-3)Gal(b1-4)GlcNAc,1.22
same,glycan array binding signal (z-score),Gal(b1-3)GalNAc,-0.081
same,glycan array binding signal (z-score),[1],0.445
same,glycan array binding signal (z-score),[2],0.32
same,glycan array binding signal (z-score),[3],0.277
same,glycan array binding signal (z-score),Gal(b1-3)GlcNAc,0.393
same,glycan array binding signal (z-score),[4],-0.302
same,glycan array binding signal (z-score),[5],0.415
same,glycan array binding signal (z-score),[6],1.1
same,glycan array binding signal (z-score),[7],0.446
same,glycan array binding signal (z-score),[8],-0.413
same,glycan array binding signal (z-score),[9],-0.409
same,glycan array binding signal (z-score),[10],0.294
same,glycan array binding signal (z-score),[11],-0.435
same,glycan array binding signal (z-score),[12],0.021
same,glycan array binding signal (z-score),[13],-0.133
same,glycan array binding signal (z-score),[14],0.353
same,glycan array binding signal (z-score),[15],-0.431
same,glycan array binding signal (z-score),[16],1.28
same,glycan array binding signal (z-score),[17],-0.376
same,glycan array binding signal (z-score),Gal(b1-4)Glc,0.104
same,glycan array binding signal (z-score),Gal(b1-4)Glc6S,0.198
same,glycan array binding signal (z-score),Gal(b1-4)GlcNAc,-0.032
same,glycan array binding signal (z-score),[18],0.158
same,glycan array binding signal (z-score),[19],0.219
same,glycan array binding signal (z-score),[20],1.87
same,glycan array binding signal (z-score),[21],2.43
same,glycan array binding signal (z-score),[22],1.86
same,glycan array binding signal (z-score),[23],2.07
same,glycan array binding signal (z-score),[24],0.493
same,glycan array binding signal (z-score),[25],0.139
same,glycan array binding signal (z-score),[26],0.245
same,glycan array binding signal (z-score),[27],0.199
same,glycan array binding signal (z-score),[28],0.216
same,glycan array binding signal (z-score),[29],0.186
same,glycan array binding signal (z-score),[30],-0.143
same,glycan array binding signal (z-score),[31],0.333
same,glycan array binding signal (z-score),Gal3S(b1-3)GalNAc,0.823
same,glycan array binding signal (z-score),Gal3S(b1-3)GlcNAc,0.41
same,glycan array binding signal (z-score),[32],-0.42
same,glycan array binding signal (z-score),Gal3S(b1-4)Glc,0.286
same,glycan array binding signal (z-score),Gal3S(b1-4)Glc6S,1.18
same,glycan array binding signal (z-score),Gal3S(b1-4)GlcNAc,0.094
same,glycan array binding signal (z-score),Gal3S(b1-4)GlcNAc6S,0.678
same,glycan array binding signal (z-score),[33],-0.432
same,glycan array binding signal (z-score),Gal3S4S(b1-4)GlcNAc,-0.396
same,glycan array binding signal (z-score),Gal3S6S(b1-4)GlcNAc,-0.451
same,glycan array binding signal (z-score),Gal3S6S(b1-4)GlcNAc6S,-0.346
same,glycan array binding signal (z-score),Gal4S(b1-4)GlcNAc,-0.395
same,glycan array binding signal (z-score),Gal4S6S(b1-4)GlcNAc,-0.431
same,glycan array binding signal (z-score),Gal6S(b1-4)Glc,-0.368
same,glycan array binding signal (z-score),Gal6S(b1-4)Glc6S,-0.419
same,glycan array binding signal (z-score),Gal6S(b1-4)GlcNAc,-0.392
same,glycan array binding signal (z-score),Gal6S(b1-4)GlcNAc6S,-0.439
same,glycan array binding signal (z-score),GalNAc(a1-3)Gal,-0.427
same,glycan array binding signal (z-score),GalNAc(a1-3)GalNAc,-0.42
same,glycan array binding signal (z-score),GalNAc(b1-3)Gal,0.446
same,glycan array binding signal (z-score),[34],0.145

# Source: the supplement of paper PMC8728848
